Laboratory results published in the supplement of paper PMC3334620.
In all, about 33,000 sequences were measured (“E-score (-0.5 to 0.5)”: median about -0.035, highest 2% from about 0.34 on). This is one part of the list.

These sequences were tested against T1, Mot3 (UniProt P54785) (assay: PBM E-score (8-mer binding enrichment) (E-score (-0.5 to 0.5)); higher = stronger / more preferred TF binding; most listed sequences are background and not binding sites). Settings: protein concentration: 200 nM; construct: GST-full length.
T1 sequence: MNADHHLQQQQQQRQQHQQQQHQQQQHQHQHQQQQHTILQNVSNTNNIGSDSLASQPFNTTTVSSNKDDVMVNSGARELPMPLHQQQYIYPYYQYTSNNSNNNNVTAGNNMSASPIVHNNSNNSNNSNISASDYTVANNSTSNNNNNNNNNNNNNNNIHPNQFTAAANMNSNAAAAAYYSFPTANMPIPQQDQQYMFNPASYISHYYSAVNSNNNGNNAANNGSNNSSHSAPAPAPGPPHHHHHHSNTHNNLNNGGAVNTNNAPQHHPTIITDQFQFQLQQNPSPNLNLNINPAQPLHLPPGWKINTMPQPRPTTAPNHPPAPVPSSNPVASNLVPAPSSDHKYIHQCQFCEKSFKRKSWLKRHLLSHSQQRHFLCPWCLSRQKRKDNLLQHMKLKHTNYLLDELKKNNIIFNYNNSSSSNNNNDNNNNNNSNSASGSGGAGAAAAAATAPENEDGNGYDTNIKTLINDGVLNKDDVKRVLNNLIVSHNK
Summary of the method: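 Universal all-10-mer Agilent arrays, double-stranded by primer extension on fresh or once-stripped slides, were probed with about 100-200 nM GST-tagged yeast transcription factors made by PURExpress. Fluorescent anti-GST detected bound protein, and masliner normalised the scans. E-scores from the Universal PBM Analysis Suite were given to each ungapped eight-base word pooled with its reverse complement.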

Going from TCCATGAA to CGAGCAAC, the “PBM E-score” value rises from -0.0433 to 0.0725.

Compared with GGTTACCA, CGGCCAAA is higher in “PBM E-score” value: -0.0508 for the first, 0.047 for the second.

Compared with TCACGTAA, GTCGATTA is lower in “PBM E-score” value: 0.306 for the first, 0.0146 for the second.

First: CTGTTAAG
Second: CACCGCTA
The “PBM E-score” value of the first is higher: 0.259 for the first, -0.133 for the second.

Compared with ATTGTTAA, AAAGGTCT is lower in “PBM E-score” value: 0.235 for the first, -0.0534 for the second.

First: AGAGTGTA
Second: CCTGTTAA
The “PBM E-score” value of the first is lower: 0.0658 for the first, 0.297 for the second.

Going from ATAGAACA to ATGTACTA, the “PBM E-score” value rises from 0.123 to 0.315.

First: CCGTGTTA
Second: ACCTTTAG
The “PBM E-score” value of the first is higher: 0.376 for the first, 0.0895 for the second.

Going from ACTAAGGC to CGTCACTA, the “PBM E-score” value falls from 0.0062 to -0.0785.

Compared with CCAATCAG, AGCGGCAG is lower in “PBM E-score” value: -0.22 for the first, -0.223 for the second.

Compared with ATTGGCAA, CGTCGGGA is lower in “PBM E-score” value: 0.0509 for the first, -0.272 for the second.

Going from CTGGTCGC to GTAGCGGA, the “PBM E-score” value falls from -0.0546 to -0.149.

Going from ATCACGCA to AAAGCGCT, the “PBM E-score” value falls from 0.09 to -0.0135.

Going from TAGAGGAA to ACGCGGAT, the “PBM E-score” value rises from -0.0809 to 0.301.

Compared with ATTTCCCG, GGAATAAC is higher in “PBM E-score” value: 0.114 for the first, 0.153 for the second.

Compared with ATGTGGAA, CCTCTTAG is lower in “PBM E-score” value: 0.00649 for the first, -0.0201 for the second.

Going from CTGGTTAA to AGACGCCG, the “PBM E-score” value falls from 0.201 to -0.0857.

Going from GAAGCCGA to TAGGGATA, the “PBM E-score” value rises from -0.273 to -0.0974.

Compared with CAACTGAG, GACAACCA is lower in “PBM E-score” value: 0.00667 for the first, -0.13 for the second.

Compared with CGGTCAAC, TAGCGCCA is lower in “PBM E-score” value: 0.0299 for the first, -0.234 for the second.

First: ACTTCAGA
Second: CCCTCCGC
The “PBM E-score” value of the first is higher: 0.0768 for the first, -0.208 for the second.

Going from AATACACA to GGCATCGA, the “PBM E-score” value falls from 0.389 to 0.103.

Compared with CGGCCCAC, AGACGAGG is lower in “PBM E-score” value: -0.112 for the first, -0.226 for the second.

First: AGTAATTA
Second: CCTCCTTA
The “PBM E-score” value of the first is higher: 0.246 for the first, -0.114 for the second.

Compared with GAGAAACC, ACCTATGG is higher in “PBM E-score” value: -0.137 for the first, -0.109 for the second.

First: CTATCCCA
Second: AACCGGTG
The “PBM E-score” value of the first is higher: -0.0179 for the first, -0.14 for the second.

First: ACTGTTCG
Second: ATAACGCC
The “PBM E-score” value of the first is lower: -0.0349 for the first, 0.181 for the second.

Compared with ATCGCGTA, TAAACGTA is lower in “PBM E-score” value: 0.329 for the first, 0.21 for the second.

First: AACTCTTC
Second: ACGTGTGA
The “PBM E-score” value of the first is lower: -0.178 for the first, 0.184 for the second.

Compared with CTCGTACA, TAGTTTGA is lower in “PBM E-score” value: 0.0541 for the first, 0.0471 for the second.

First: CACTCGCG
Second: TATTCACA
The “PBM E-score” value of the first is lower: -0.117 for the first, 0.221 for the second.

Going from GCTGGGCC to CGGGAATC, the “PBM E-score” value falls from -0.344 to -0.402.

Going from TAACATTA to AGCAAAGC, the “PBM E-score” value falls from 0.29 to -0.0367.

Compared with CCTCACGA, TGCGAAAA is higher in “PBM E-score” value: -0.174 for the first, 0.224 for the second.

Compared with ATCTCACA, CCAATATC is lower in “PBM E-score” value: -0.0227 for the first, -0.275 for the second.

Going from ACCTACCC to ATAATTCC, the “PBM E-score” value rises from -0.176 to 0.0837.

Compared with GTCCGGGA, CATCCAAA is higher in “PBM E-score” value: -0.131 for the first, 0.159 for the second.

First: TAGGACCA
Second: CGTGCGAC
The “PBM E-score” value of the first is lower: -0.166 for the first, -0.0716 for the second.

First: CTCAATGA
Second: CCCCGTAG
The “PBM E-score” value of the first is higher: -0.0587 for the first, -0.165 for the second.

Going from AGTGGCAG to ATTATATG, the “PBM E-score” value rises from -0.238 to 0.142.

Going from GGTTCTCA to CACTTCGG, the “PBM E-score” value falls from 0.0406 to -0.122.

Going from GTCGGGCA to ACCTAGAG, the “PBM E-score” value rises from -0.0696 to -0.0569.

Going from ACTTTAGG to AAATCGAT, the “PBM E-score” value falls from 0.175 to 0.00707.

Compared with CACAGGAC, CAAGCGCC is higher in “PBM E-score” value: -0.175 for the first, -0.0468 for the second.

First: AGGGTTGC
Second: AGTAGTTC
The “PBM E-score” value of the first is higher: 0.0524 for the first, -0.00861 for the second.

Compared with AGACGTTG, ACCGGAAC is lower in “PBM E-score” value: -0.0528 for the first, -0.264 for the second.

Compared with ACCCGTTG, CTTTGCAA is higher in “PBM E-score” value: -0.0767 for the first, -0.0316 for the second.

Going from GACTCCGC to CCTCTCAG, the “PBM E-score” value rises from -0.289 to -0.149.

Going from GGCGCTAA to AGAATGCT, the “PBM E-score” value rises from -0.154 to -0.1.

Compared with TACATGGA, AAATGTTG is lower in “PBM E-score” value: 0.346 for the first, 0.0783 for the second.

First: AAGAGAGG
Second: GAAAAGTC
The “PBM E-score” value of the first is higher: -0.0458 for the first, -0.0719 for the second.

Compared with ATTATTGA, ATGAAACG is lower in “PBM E-score” value: 0.0959 for the first, 0.0168 for the second.

Going from GAGCCTAC to CCCCGTAA, the “PBM E-score” value falls from 0.273 to -0.0187.

First: CCAGCCAC
Second: CAACTTAC
The “PBM E-score” value of the first is lower: -0.19 for the first, 0.144 for the second.

Compared with AATCAAGC, AGACACCC is higher in “PBM E-score” value: -0.177 for the first, 0.0261 for the second.

First: AGCCGCTA
Second: CATCAGGA
The “PBM E-score” value of the first is lower: -0.161 for the first, 0.167 for the second.

Going from AGGTGTCG to CTGGCCCA, the “PBM E-score” value falls from 0.124 to -0.265.

First: ACGCTGTG
Second: GACTTAAC
The “PBM E-score” value of the first is higher: 0.207 for the first, 0.0265 for the second.

Going from ACTCAAAT to ACAACAAC, the “PBM E-score” value rises from 0.0774 to 0.274.

Going from GCACGGCA to AAATTCCA, the “PBM E-score” value falls from 0.151 to 0.0982.

Going from TCAGAGCA to GGGAGGTA, the “PBM E-score” value rises from -0.281 to 0.0239.

Compared with ATATGATA, CGCTCCAG is lower in “PBM E-score” value: 0.185 for the first, -0.0583 for the second.

First: GAGTGCGC
Second: ATAATATA
The “PBM E-score” value of the first is lower: -0.229 for the first, 0.215 for the second.

Going from ATCACGTG to AATTAATA, the “PBM E-score” value rises from 0.098 to 0.229.

Compared with AAGCTTCG, ACTTATTC is lower in “PBM E-score” value: -0.115 for the first, -0.229 for the second.

First: ACCCGGTC
Second: CGCATGAC
The “PBM E-score” value of the first is lower: -0.167 for the first, -0.0222 for the second.

Compared with TCGTGCAA, CATAATCA is lower in “PBM E-score” value: 0.148 for the first, 0.119 for the second.

Compared with CCTCTCTC, AGTGTCTG is higher in “PBM E-score” value: -0.252 for the first, -0.113 for the second.

Compared with ACTGATGC, CCGGCTTC is lower in “PBM E-score” value: 0.0402 for the first, -0.338 for the second.

Going from GAGGGTGC to AAGTTGAT, the “PBM E-score” value rises from -0.215 to 0.109.

Compared with AACTGCAG, GTTATTAA is higher in “PBM E-score” value: -0.0674 for the first, 0.169 for the second.

First: AGTGATCA
Second: CCAAACCA
The “PBM E-score” value of the first is lower: -0.219 for the first, -0.0679 for the second.

Going from GGCGCACC to AGACGTAT, the “PBM E-score” value rises from -0.142 to 0.0119.

Going from ACACGCAA to GCCCCGGA, the “PBM E-score” value falls from 0.262 to -0.162.

Going from GCAACCCA to GCTGCAGA, the “PBM E-score” value falls from 0.0269 to -0.0977.

First: GACACTTA
Second: AAACACTT
The “PBM E-score” value of the first is higher: 0.187 for the first, 0.117 for the second.

Compared with ATGTCAAA, TAGGATCA is lower in “PBM E-score” value: 0.242 for the first, 0.0879 for the second.

First: AACGCGAG
Second: AATTAGAA
The “PBM E-score” value of the first is higher: 0.0856 for the first, 0.0347 for the second.

Going from AGGCGGGC to ACATGTCA, the “PBM E-score” value rises from -0.164 to 0.319.

First: ACTGACCC
Second: AGTAGTGG
The “PBM E-score” value of the first is lower: -0.172 for the first, -0.0203 for the second.

First: CGGGTCTA
Second: AGAACTCA
The “PBM E-score” value of the first is lower: -0.0246 for the first, 0.0456 for the second.

First: ACCCGTAC
Second: ATAAAGGC
The “PBM E-score” value of the first is lower: -0.0782 for the first, 0.186 for the second.

First: ACGATACG
Second: CGGTCTCC
The “PBM E-score” value of the first is higher: 0.0539 for the first, -0.283 for the second.

Going from CGAAGGGA to GGCAACGA, the “PBM E-score” value rises from -0.0448 to 0.285.

First: GAATCGGA
Second: CCCGACCG
The “PBM E-score” value of the first is higher: -0.0835 for the first, -0.247 for the second.

Compared with CTAGTCCA, AGTTTGAT is higher in “PBM E-score” value: -0.134 for the first, -0.121 for the second.
